Results as given in paper PMC10096524, “1-Benzyl-5-bromo-3-hydrazonoindolin-2-ones as Novel Anticancer Agents: Synthesis, Biological Evaluation and Molecular Modeling Insights” (Molecules, 2023).
Blank lines part the entries; values can stand above or below the compound they belong to.

Key:
[1] = test system: chick embryos; settings: cited from earlier work
[2] = test system: NCI-USA anticancer assay; design: method as in PMID 32775889; settings: cited from earlier work
[3] = test system: MCF-10A cells; test: Cytotoxicity on non-tumourigenic breast MCF-10A cells; assay type: cell-based; settings: Homo sapiens, normal cells, read-out: IC50 against non-tumourigenic breast MCF-10A cells
Text: Furthermore, in this study, we assessed the potential cytotoxic effect of the best anti-proliferative N-benzyl-5-bromoindolin-2-one derivatives 7c and 7d on the non-tumourigenic breast MCF-10A cells.
(§1) The experimental procedures for the performed pharmacological assays. MTT cytotoxicity, VEGFR-2 inhibitory activity, and cell cycle flow cytometry assays, as well as the assessment of the expression levels for the apoptotic markers, were described in the Supplementary Materials and performed as previously described.

[4] = test system: caspase-3; test: Active caspase-3 level in MCF-7 cells; assay type: cell-based, human; settings: IC50 concentration
Procedure: (§2) The crucial apoptosis mediators are a family of cysteine-aspartic proteases known as caspases, whose activation has a significant impact on apoptosis induction. Accordingly, the impact of 1-benzyl-5-bromoindolin-2-one derivative 7d on caspase 3 was evaluated. Being the executioner caspase, its induction gives insight into the pro-apoptotic effect of 7d. Moreover, the effect of 7d on the activation of caspase-9 was determined for further evaluation of the pro-apoptotic activity.
as §1

[5] = test system: MCF-7 cells; test: Cell cycle analysis by flow cytometry in MCF-7 cells; assay type: cell-based, human; settings: 24 h at IC50 concentration
Procedure: Cytotoxic agents abort cell growth by arresting their proliferation within definite, well-known checkpoints. After cancerous cells were treated with anti-tumour agents, distinguishing cells in different cell cycle phases could be detected. MCF-7 cells have been treated with 1-benzyl-5-bromo-3-hydrazonoindolin-2-one 7d at the IC50.
as §1
Figure 2 Effect of 7d on the cell cycle phases within MCF-7 cells after treatment for 24 h at the IC50 concentration. […]
evaluated using serial dilutions (10, 5, 2.5, 1, 0.1, 0.01 μM) against VEGFR-2 Kinase Assay Kit Catalog # 40325 (BPS Bioscience) according to manufacturer’s instructions. In brief, the master mixture was produced (25 μL per well) and poured into each well. Each well received 5 μL of inhibitor solution designated as "Test Inhibitor". […] The amount of VEGFR-2 required for the test was measured and the enzyme was diluted to 1 ng/ μL with kinase buffer. […] The luminescence was measured with a microplate reader.
The autophosphorylation percentage inhibition by compounds was calculated using the […]

[6] = test system: caspase-9; test: Active caspase-9 level in MCF-7 cells; assay type: cell-based, human; settings: IC50 concentration
Procedure: as §2, §1

[7] = test system: MCF-7 cells; test: MTT anti-proliferative assay, MCF-7 breast cancer cells; assay type: cell-based; settings: Homo sapiens, MCF7, 48 h exposure, means ± S.D. of 3 separate experiments
Procedure: The anti-proliferative effect of the newly prepared N-benzyl-5-bromoindolin-2-one derivatives 7a–d and 12a–e was assessed in two human tumour cell lines: A-549 lung cancer and MCF-7 breast cancer. As a reference antitumour drug, doxorubicin was exploited in this experiment. The findings were expressed as median growth inhibitory concentration (IC50) values (Table 1).
as §1
1. […]
The two examined human cancer cell lines (MCF-7 and A-549) have been obtained from American Type Culture Collection (ATCC). […] Cells were sub-cultured with trypsine /EDTA solution, counted with haemocytometer and plated onto 96-well plates (5000 cells/well) and left overnight to form a semi-confluent monolayer.
Cell monolayers were treated in quadrates with vehicle (DMSO, 0.1% v/v), test samples (7a-d and 12a-e) or doxorubicin as positive control for an exposure time of 48 h. […] DMSO (100 µl/well) was added to dissolve the formazan crystals with shaking for 10 min after which the absorbance was read at 590 nm against no cell blanks on a FLuo Star Optima microplate reader (BMG technologies, Germany). […]

- melting point: 248 to 249 °C
Structure (SMILES): O=C1C(=NNc2nc(-c3ccc(Br)cc3)cs2)c2cc(Br)ccc2N1Cc1ccccc1 [Compound 7b]

- melting point: > 300 °C
Structure (SMILES): Cc1nc(NN=C2C(=O)N(Cc3ccccc3)c3ccc(Br)cc32)sc1N=Nc1ccccc1 [Compound 12a]

- melting point: > 300 °C
Structure (SMILES): Cc1nc(NN=C2C(=O)N(Cc3ccccc3)c3ccc(Br)cc32)sc1N=Nc1ccc(F)cc1 [Compound 12c]

Structure (SMILES): COc1ccc2c(c1)/C(=N\Nc1nnc3n1N=C(c1ccccc1)CS3)C(=O)N2 [Compound I]
- effect on developed blood vessels ([1]; HET-CAM): remarkably reduced the developed blood vessels
- toxicity for the chick embryos ([1]; in vivo): not toxic
- growth inhibition mean [2]: 40%

Structure (SMILES): O=C1C(=NNc2nc(-c3ccc(F)cc3)cs2)c2cc(Br)ccc2N1Cc1ccccc1 [Compound 7c]
- IC50 [3]: 91.3 ± 3.51 µM

- melting point: 223 to 225 °C
Structure (SMILES): O=C1C(=NNc2nc(-c3ccccc3)cs2)c2cc(Br)ccc2N1Cc1ccccc1 [Compound 7a]

Structure (SMILES): O=C1C(=NNc2nc(-c3ccc(Cl)cc3)cs2)c2cc(Br)ccc2N1Cc1ccccc1 [Compound 7d]
- induction of active caspase-3 level compared to control [4]: 18.3 fold
- cells in the G2/M phase [5]: 15.5%
- cells in the sub-G1 phase [5]: 9.7%
- IC50 [3]: 83 ± 4.1 µM
- potentiation of active caspase-9 level compared to control [6]: 16.7 fold

- melting point: > 300 °C
Structure (SMILES): Cc1nc(NN=C2C(=O)N(Cc3ccccc3)c3ccc(Br)cc32)sc1N=Nc1ccc(Cl)cc1 [Compound 12d]

- melting point: > 300 °C
Structure (SMILES): Cc1nc(NN=C2C(=O)N(Cc3ccccc3)c3ccc(Br)cc32)sc1N=Nc1ccc(S(N)(=O)=O)cc1 [Compound 12e]

- IC50 [7]: > 100 µM
- melting point: > 300 °C
Structure (SMILES): Cc1nc(NN=C2C(=O)N(Cc3ccccc3)c3ccc(Br)cc32)sc1N=Nc1ccc([N+](=O)[O-])cc1 [Compound 12b]
